Test results reported in PubChem BioAssay AID504333 (National Center for Advancing Translational Sciences (NCATS), 2011).
The whole screen tested about 360,000 compounds, of which about 16,000 (4.4%) were called active. The inconclusive results got no clear call from the source; some entries with a clear call stand among them for comparison. Calls follow the shape of the dose curve; as a rule, active = well fitted inhibition curve with a large enough effect; inconclusive = small, poorly fitted or top-dose-only effect; inactive = no such curve, though single readings can be large or run the other way. A potency beside an inconclusive call is a rough fit, not a confirmed value.

Biological target: Bromodomain adjacent to zinc finger domain protein 2B (Homo sapiens) (UniProt Q9UIF8)
Assay: qHTS Assay for Inhibitors of BAZ2B; also: nearly all actives have a fitted effect of over 60% in size
Conditions: AlphaScreen BAZ2B-H3K14Ac peptide displacement; series mostly up to 114 µM
In short: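 BAZ2B 50 nM plus b-H3(5-23)K14Ac 50 nM, PBS pH 7.4/0.01% Tween-20, 30 min RT; compound added (max 110 uM), 30 min RT; streptavidin donor/Ni-chelate acceptor beads 10 ug/mL final, 20 min dark; AlphaScreen read.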
Potency is read from the fitted curve at half-maximal effect; tags tell the direction and shape of the fitted curve.

Sequence of UniProt Q9UIF8 (Q9UIF8 whole entry, looked up, the tested form may be a part): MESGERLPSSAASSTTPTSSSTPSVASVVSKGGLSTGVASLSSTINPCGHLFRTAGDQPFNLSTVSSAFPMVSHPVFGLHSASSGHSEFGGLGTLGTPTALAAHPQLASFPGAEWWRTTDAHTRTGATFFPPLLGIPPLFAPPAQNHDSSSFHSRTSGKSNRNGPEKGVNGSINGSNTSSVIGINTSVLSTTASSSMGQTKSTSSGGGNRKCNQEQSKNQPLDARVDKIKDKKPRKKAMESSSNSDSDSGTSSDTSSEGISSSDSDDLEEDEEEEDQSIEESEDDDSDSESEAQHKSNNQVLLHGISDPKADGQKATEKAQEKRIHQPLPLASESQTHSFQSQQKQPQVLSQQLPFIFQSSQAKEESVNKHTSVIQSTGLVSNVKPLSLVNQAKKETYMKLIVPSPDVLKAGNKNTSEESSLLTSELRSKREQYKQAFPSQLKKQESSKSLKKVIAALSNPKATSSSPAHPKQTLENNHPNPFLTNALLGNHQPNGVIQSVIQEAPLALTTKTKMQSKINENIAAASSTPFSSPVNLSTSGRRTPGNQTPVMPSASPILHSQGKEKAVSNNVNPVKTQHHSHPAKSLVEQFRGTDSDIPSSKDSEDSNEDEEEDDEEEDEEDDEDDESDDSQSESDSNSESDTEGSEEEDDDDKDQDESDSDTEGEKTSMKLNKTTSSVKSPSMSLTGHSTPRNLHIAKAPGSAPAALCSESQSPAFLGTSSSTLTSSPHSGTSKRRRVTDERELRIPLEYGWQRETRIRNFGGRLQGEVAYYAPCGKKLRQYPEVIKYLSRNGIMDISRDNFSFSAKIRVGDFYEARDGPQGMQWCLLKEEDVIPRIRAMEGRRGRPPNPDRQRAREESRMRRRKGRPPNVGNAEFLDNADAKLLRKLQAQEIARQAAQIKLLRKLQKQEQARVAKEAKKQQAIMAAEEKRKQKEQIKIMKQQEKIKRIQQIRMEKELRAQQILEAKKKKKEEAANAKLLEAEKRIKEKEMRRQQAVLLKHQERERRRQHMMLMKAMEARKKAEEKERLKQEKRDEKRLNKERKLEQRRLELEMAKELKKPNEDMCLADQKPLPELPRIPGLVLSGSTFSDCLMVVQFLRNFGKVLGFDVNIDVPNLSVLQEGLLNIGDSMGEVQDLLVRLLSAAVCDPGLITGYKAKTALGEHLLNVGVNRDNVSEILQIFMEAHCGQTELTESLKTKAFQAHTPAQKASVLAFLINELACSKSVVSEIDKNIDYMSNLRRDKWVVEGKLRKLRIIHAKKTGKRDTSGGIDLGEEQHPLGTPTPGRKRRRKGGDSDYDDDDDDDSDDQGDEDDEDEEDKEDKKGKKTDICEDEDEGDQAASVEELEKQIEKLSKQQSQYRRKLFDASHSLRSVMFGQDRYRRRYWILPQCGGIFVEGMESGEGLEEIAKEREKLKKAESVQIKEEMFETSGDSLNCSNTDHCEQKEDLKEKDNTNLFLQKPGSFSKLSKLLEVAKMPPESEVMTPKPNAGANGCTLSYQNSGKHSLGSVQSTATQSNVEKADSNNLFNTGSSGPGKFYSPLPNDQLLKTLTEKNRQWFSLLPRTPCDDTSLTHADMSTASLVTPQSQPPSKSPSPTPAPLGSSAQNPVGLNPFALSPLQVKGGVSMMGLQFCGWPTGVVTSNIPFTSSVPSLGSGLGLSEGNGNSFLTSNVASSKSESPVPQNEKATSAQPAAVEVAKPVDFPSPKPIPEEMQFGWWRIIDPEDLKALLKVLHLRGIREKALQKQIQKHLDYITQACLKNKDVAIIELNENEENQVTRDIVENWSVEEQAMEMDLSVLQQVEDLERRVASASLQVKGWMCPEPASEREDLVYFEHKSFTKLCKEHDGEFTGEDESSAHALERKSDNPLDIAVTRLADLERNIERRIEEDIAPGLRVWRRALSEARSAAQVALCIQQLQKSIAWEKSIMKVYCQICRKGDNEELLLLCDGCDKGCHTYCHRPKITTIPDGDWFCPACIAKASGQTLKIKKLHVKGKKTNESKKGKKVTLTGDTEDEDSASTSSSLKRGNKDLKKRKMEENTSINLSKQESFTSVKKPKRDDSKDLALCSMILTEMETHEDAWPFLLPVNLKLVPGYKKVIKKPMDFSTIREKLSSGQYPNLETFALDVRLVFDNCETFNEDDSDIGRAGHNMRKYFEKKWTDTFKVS

Row | Structure (SMILES) | Potency
1 | COc1ccc(C)cc1NC(=O)n1ncc2cc(Cl)ccc21 | inactive
2 | CCN(CC)S(=O)(=O)c1ccc(N2CCCC2)c(NC(=O)Cc2ccc(OC)cc2)c1 | inactive
3 | CCOC(=O)Cc1csc(NC(=O)NC2(C(F)(F)F)Oc3ccccc3O2)n1 | inconclusive: 89.1 µM [inhibitor, single point]
4 | CC1=NN(C(=O)c2c(Br)c(C)nn2C)C(O)(C(F)(F)F)C1 (centres undefined) | inactive
5 | COC(=O)C1=CN(Cc2ccc(OC)c(OC)c2)C=C(C(=O)OC)C1c1cccc(F)c1 | inactive
6 | O=C(O)c1ccc(/C=N/NC(=O)c2cc(-c3ccc4c5c(cccc35)CC4)n[nH]2)cc1 | active: 50.1 µM
7 | COC(=O)C1=C(C)N(CCc2ccccc2)C(=O)/C1=C\c1ccco1 | active: 35.5 µM
8 | COc1ccc(/C(C)=N/Nc2nc3ccccc3nc2C)cc1OC | inconclusive: 44.7 µM [inhibitor, partial curve]
9 | Oc1ccc(/C=N/N(Cc2ccccc2)c2ccccc2)cc1 | active: 39.8 µM
10 | CCCC1N=C2c3ccccc3N=C(SCC(=O)NCCc3ccc(Cl)cc3)N2C1=O (centres undefined) | inactive
11 | Nc1cc(N)cc(-c2nc3ccccc3[nH]2)c1 | active: 44.7 µM
12 | COc1cc(Br)c(C(=O)c2nccc3cc(OC)c(OC)cc23)cc1OC | inconclusive: 39.8 µM [inhibitor, partial curve]
13 | O=C(O)CCCCCn1c(O)c(C=C2N=c3ccccc3=N2)sc1=S | active: 50.1 µM
14 | CN(CC(=O)Nc1ccccc1Cl)C(=O)c1cccc(-n2cccc2)c1 | inconclusive: 79.4 µM [inhibitor, single point]
15 | CCOC(=O)CSc1nc(C(C)C)nc2ccccc12 | inactive
16 | CC(C(=O)Nc1cc([N+](=O)[O-])ccc1Cl)N1CCN(c2ccccc2O)CC1 (centres undefined) | inconclusive: 35.5 µM [inhibitor, full curve]
17 | N#CC1=C(N)SC(N)=C(C#N)C1c1ccc(C(F)(F)F)cc1 | inactive
18 | COc1cccc2c(=O)c(C(=O)O)c[nH]c12 | inconclusive: 89.1 µM [inhibitor, single point]
19 | COc1ccc(C(O)c2nccc3cc(OC)c(OC)cc23)cc1OC (centres undefined) | active: 56.2 µM
20 | COc1ccc(CN2C(=O)c3cccnc3C2Nc2ccc(C)cc2)cc1 (centres undefined) | inconclusive: 89.1 µM [inhibitor, single point]
21 | O=C(COC(=O)c1ccc(F)cc1F)Nc1ncccn1 | active: 50.1 µM
22 | Cc1ccccc1N1CC(c2nnc(NC(=O)c3ccco3)s2)CC1=O (centres undefined) | inconclusive: 89.1 µM [inhibitor, single point]
23 | CCOC(=O)C1CCCN(S(=O)(=O)c2ccc(OC)cc2)C1 (centres undefined) | inactive
24 | COc1cc2ccccc2cc1C(=O)N(CCN(C)C)c1nc2c(C)cccc2s1 | inconclusive: 11.2 µM [inhibitor, partial curve]
25 | CC([NH2+][O-])C(C)(C)NO (centres undefined) | inconclusive: 89.1 µM [inhibitor, single point]
26 | Cc1ccc(-c2cc3ncc4c(n3n2)-c2cc(Cl)ccc2OC4)cc1 | inactive
27 | O=C(CSc1ccc(-c2ccco2)nn1)N1CCCCC1 | inconclusive: 70.8 µM [inhibitor, single point]

Row | Structure (SMILES) | Potency
28 | CCOc1ccc(CC(=O)NCc2ccc3c(c2)CCN3C(=O)c2ccccc2)cc1OCC | inactive
29 | COc1ccc(NC(=O)CC2C(=O)N(c3cccc(OC)c3)C(=O)N2CCC2=CCCCC2)cc1 (centres undefined) | inactive
30 | Cn1c(=O)n(C)c2cc(S(=O)(=O)Nc3ccccc3O)ccc21 | inconclusive: 79.4 µM [inhibitor, single point]
31 | CCC(C)(C)C1CCc2c(sc(N)c2C(N)=O)C1 (centres undefined) | inconclusive: 89.1 µM [inhibitor, single point]
32 | Cc1ccc(NC(=S)/C(=C(\[O-])c2ccc(C)c([N+](=O)[O-])c2)[n+]2ccccc2)cc1C | active: 56.2 µM
33 | O=C(NCc1ccccn1)c1cc(Cl)ccc1OCc1ccccc1 | inactive
34 | COc1ccc2cc(CCNC(=O)CCc3ccccc3)c(=O)[nH]c2c1 | inconclusive: 89.1 µM [inhibitor, single point]
35 | COc1ccc(C(=O)NCc2ccc(-n3cccc3)cc2)cc1OC | inconclusive: 50.1 µM [inhibitor, partial curve, poor fit]
36 | Cc1ccc(-c2nn(-c3ccccc3)cc2NC(=O)c2ccccc2)cc1 | inactive
37 | COc1ccc(C(=O)Nc2ccc(Cc3ccncc3)cc2)cc1Br | inconclusive: 79.4 µM [inhibitor, partial curve]
38 | O=C(/C=C/c1ccc(Cl)cc1)N1CCC(c2nc3ccccc3o2)CC1 | inconclusive: 89.1 µM [inhibitor, single point]
39 | CCOC(=O)CNC(=S)n1cnc(N)n1 | active: 79.4 µM
40 | C=CCNc1nc(-c2ccc(Cl)cc2)cs1 | inconclusive: 79.4 µM [inhibitor, single point]
41 | O=C(O/N=C\c1ccc(N2CCOCC2)c([N+](=O)[O-])c1)c1ccccc1Cl | inconclusive: 12.6 µM [inhibitor, partial curve]
42 | COCCNC(=O)c1onc(CSc2cccc(OC)c2)c1C(=O)NCCOC | inactive
43 | CCOC(=O)c1c(C)oc2c1c1c(c3ccccc32)OCN(Cc2ccccn2)C1 | active: 44.7 µM
44 | COC(=O)c1c(NC(=O)CSc2nnc(-c3ccco3)n2Cc2ccccc2)sc(C)c1C | inconclusive: 79.4 µM [inhibitor, single point]
45 | CCOc1ccc(C(=O)NCc2ccco2)cc1 | inconclusive: 89.1 µM [inhibitor, single point]
46 | COc1ccc(-c2noc(CC(=O)Nc3cc(OC)ccc3OC)n2)cc1 | inconclusive: 79.4 µM [inhibitor, single point]
47 | Cc1cc(C(=S)N2CCOCC2)c(C)n1-c1ccc(F)cc1 | active: 44.7 µM
48 | O=C(NCc1ccco1)Nc1cccs1 | inconclusive: 89.1 µM [inhibitor, single point]
49 | C/C(=N\Nc1ncc(Cl)cc1Cl)c1ccc(N2CCOCC2)cc1 | active: 50.1 µM
50 | CSc1ccccc1C(=O)N1CCN(c2ccc(F)cc2)CC1 | inactive
51 | O=[N+]([O-])c1cc(C(F)(F)F)ccc1NCCCCNS(=O)(=O)c1ccc(Cl)cc1 | inconclusive: 31.6 µM [inhibitor, full curve]
52 | Cc1ccc(SSc2cc(C)ccc2N)c(N)c1 | active: 50.1 µM
53 | O=C(Nc1ccc(F)cc1)c1nc2c(nnn2Cc2cccc3ccccc23)c(=O)[nH]1 | inconclusive: 89.1 µM [inhibitor, single point]
54 | Cc1ccc(S(=O)(=O)NCC(c2ccco2)N2CCc3ccccc32)cc1 (centres undefined) | inconclusive: 50.1 µM [inhibitor, partial curve]

Row | Structure (SMILES) | Potency
55 | Cc1cc2c(C)nc(N/N=C/c3ccccc3)nc2o1 | inconclusive: 25.1 µM [inhibitor, single point]
56 | COc1cccc(C(=O)NC(Cc2ccccc2)c2ccc3c(c2)OCCCO3)c1 (centres undefined) | inconclusive: 25.1 µM [inhibitor, single point]
57 | Cc1cc(/C=N/NC(=O)c2cccs2)c(C)n1-c1ccccc1 | inconclusive: 35.5 µM [inhibitor, single point]
58 | COCCCNCC(=O)c1c(N)n(Cc2ccccc2)c(=O)n(C)c1=O | inconclusive: 39.8 µM [inhibitor, single point]
59 | Cc1ccc(NC(=O)/C=C/c2ccco2)cc1F | inconclusive: 44.7 µM [inhibitor, partial curve]
60 | COc1ccc(Cl)cc1NC(=O)CSc1nc2c(oc3ccccc32)c(=O)n1Cc1ccco1 | inactive
61 | CC(C)N1CCC(=NNc2ccc([N+](=O)[O-])cc2S(=O)(=O)N2CCOCC2)CC1 | inconclusive: 39.8 µM [inhibitor, full curve, poor fit]
62 | CNS(=O)(=O)c1ccc(N=Cc2c(C)[nH]n(-c3ccc(C)cc3C)c2=O)cc1 | inactive
63 | CC1(C)CC(=O)C(C=Nc2ccc3cn[nH]c3c2)=C(O)C1 | inactive
64 | COc1ccc(-c2c(C(F)(F)F)[nH]n3c(=O)cc(-c4ccccc4)nc23)cc1 | inactive
65 | O=C(c1ccco1)N1CCN(Cc2cccc3ccccc23)CC1 | active: 20 µM
66 | COc1ccc(C(=O)Nc2ccc(N3CCCCCC3)cc2)cc1S(=O)(=O)N1CCOCC1 | active: 28.2 µM
67 | CN(C=O)CP(=O)(O)CN1CCCCC1 | inactive
68 | CN(C)C=NC1=NN(c2cccc(C(F)(F)F)c2)CC1 | inconclusive: 50.1 µM [inhibitor, partial curve]
69 | Cc1sc2ncnc(SCC(=O)N3CCCC3)c2c1C | inactive
70 | CCOC(=O)c1c(NC(=O)C[n+]2ccccc2)sc2c1CCCC2 | inconclusive: 79.4 µM [inhibitor, single point]
71 | COc1ccc(NC(=S)N(CCN(C)C)C(C)c2ccco2)cc1 (centres undefined) | inactive
72 | S=c1[nH]nc(-c2ccc(Cl)cc2Cl)n1-c1ccccc1 | inactive
73 | COc1ccc(NC(=S)N2CCN(Cc3ccco3)CC2)c(OC)c1 | inactive
74 | N#Cc1ccc(NC(=O)COCc2cc(-c3ccco3)on2)cc1 | inactive
75 | N/C(=N\OS(=O)(=O)c1ccccc1)c1ccncc1 | inconclusive: 89.1 µM [inhibitor, single point]
76 | C=CCc1cc(C)ccc1OCC(O)CN1CCN(c2ccccc2)CC1 (centres undefined) | active: 50.1 µM
77 | COc1ccc(OC)c(NC(=O)c2cccc(N3C(=O)C4C5C=CC(C6CC56)C4C3=O)c2)c1 (centres undefined) | inactive
78 | O=C(COC(=O)c1cc2c(s1)CCC2)Nc1ccc(F)cc1 | active: 50.1 µM
79 | Cc1ccc(Nc2nc(-c3ccc(O)cc3O)cs2)nc1 | active: 50.1 µM
